“And” between values parts separate entries of the source, which are not always exact repeats. Equal values may be shown once. The inconclusive results got no clear call from the source; some entries with a clear call stand among them for comparison. For some of these results: Potencies beside an inconclusive call are fits to weak or partial responses and may not hold up. Some structures have more than one record in an assay (separate samples or runs), and their calls can disagree. The source made the active and inactive calls. Unless noted, calls follow the shape of the dose curve; as a rule, active = well fitted curve in the direction sought with a large enough effect in the repeat runs; inconclusive = weak or mixed curves; inactive = no such curve, though single readings can be large; an effect the other way counts as inactive or inconclusive.
How the values were obtained:
[1] = qHTS assay to identify small molecule agonists of the retinoic acid receptor (RAR) signaling pathway (AID 1159553); details: C3RL4 RARE luciferase reporter, agonist, 6 h; also: potency is read from the fitted curve at half-maximal effect; as to activation: % is scaled to controls: 0 for no effect and ±100 for the full control effect
Method in brief: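 Activation of retinol signaling was monitored via a RARE luciferase reporter in C3RL4 cells. After 6 hr compound treatment at 37 C, detection reagent was added for 30 min at room temperature before luminescence reading.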

[2] = qHTS assay to identify small molecule antagonists of the estrogen related receptor (ERR) signaling pathway from Tox21 library - cell viability counter screen (AID 1224834); details: ERR reporter cells viability, CellTiter-Fluor, 17.5 h; series mostly up to 92.4 µM; also: nearly all actives have a fitted effect of over 30% in size; also: potency is read from the fitted curve at half-maximal effect
Method in brief: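 CellTiter-Fluor fluorescence measured; ERR cells; 17.5 h compound incubation at 37 C; 30 min reagent step.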

[3] = qHTS assay to identify small molecule antagonists of the estrogen related receptor (ERR) signaling pathway - cell viability counter screen (AID 1224818); details: ERR reporter cell line viability counter screen; series mostly up to 46.1 µM; also: potency is read from the fitted curve at half-maximal effect;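 also: viability measured after 17.5 h of compound exposure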
Method in brief: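 In the same ERR cell assay, compound-treated wells (17.5 h, 37 C) were multiplexed with a fluorogenic viability reagent, CellTiter-Fluor, read after 30 min to flag cytotoxic substances.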

[4] = test system: estrogen-related receptor alpha (ERRalpha) with PGC-1alpha coactivator, human; assay: qHTS assay to identify small molecule antagonists of the estrogen related receptor signaling pathway with the pleiotropic PPARgamma coactivator (PGC) (AID 1224821; calls by dose curve; also: nearly all actives have a fitted effect of over 50% in size; also: potency is read from the fitted curve at half-maximal effect); details: ERR/PGC reporter cell line, luciferase, antagonist mode; series mostly up to 46.1 µM
Method in brief: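 Quantitative HTS for antagonism: PGC/ERR cells received compounds after 6 h attachment and were incubated 18 h at 37 C, with luminescence (One-Glo) as the endpoint.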

[5] = qHTS assay to identify small molecule antagonists of the estrogen related receptor signaling pathway with the pleiotropic PPARgamma coactivator (PGC) cell viability counter screen (AID 1224822; also: potency is read from the fitted curve at half-maximal effect); details: ERR/PGC reporter cell line viability counter screen; series mostly up to 46.1 µM
Method in brief: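 Compounds in DMSO, with positive and negative controls, were applied to PGC/ERR cells (2,000/well) and left 17.5 h at 37 C before CellTiter-Fluor detection.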

[6] = qHTS assay to identify small molecule agonists of the estrogen related receptor (ERR) signaling pathway (AID 1224820); details: ERR reporter cell line, luciferase agonist mode; also: potency is read from the fitted curve at half-maximal effect
Method in brief: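 Quantitative HTS of the LOPAC library used NTP ERR reporter cells treated 18 h at 37 C. Signal is luminescence after One-Glo addition and a 30 min room-temperature incubation.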

[7] = qHTS assay to identify small molecule antagonists of the estrogen related receptor (ERR) signaling pathway (AID 1224819;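 also: luminescence from an ERR-driven luciferase reporter measured with One-Glo reagent; % is scaled to controls: 0 for no effect and ±100 for the full control effect; nearly all actives have a fitted effect of over 50% in size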); details: ERR reporter cell line, luciferase inhibition; series mostly up to 46.1 µM
Method in brief: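 qHTS in ERR cells, 2,000/well, 1536 format. Cpd (DMSO) added after 6 h settle, 18 h 37 C. One-Glo luminescence, 30 min RT.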

[8] = target: Luciferin 4-monooxygenase (Photinus pyralis) (UniProt P08659); assay: qHTS assay to identify small molecule inhibitors of firefly luciferase (AID 1224835); also: potency is read from the fitted curve at half-maximal effect; nearly all actives have a fitted effect of over 25% in size; details: purified P. pyralis luciferase, luminescence inhibition; series mostly up to 115 µM
Method in brief: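 Quantitative HTS format; KM concentrations of both substrates. Purified P. pyralis FLuc activity quantified from luminescence images.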

[9] = activation: at 73.3 µM (top of the series) unless noted
Tags tell the direction and shape of the fitted curve.

UniProt P08659, sequence (P08659 whole entry, looked up): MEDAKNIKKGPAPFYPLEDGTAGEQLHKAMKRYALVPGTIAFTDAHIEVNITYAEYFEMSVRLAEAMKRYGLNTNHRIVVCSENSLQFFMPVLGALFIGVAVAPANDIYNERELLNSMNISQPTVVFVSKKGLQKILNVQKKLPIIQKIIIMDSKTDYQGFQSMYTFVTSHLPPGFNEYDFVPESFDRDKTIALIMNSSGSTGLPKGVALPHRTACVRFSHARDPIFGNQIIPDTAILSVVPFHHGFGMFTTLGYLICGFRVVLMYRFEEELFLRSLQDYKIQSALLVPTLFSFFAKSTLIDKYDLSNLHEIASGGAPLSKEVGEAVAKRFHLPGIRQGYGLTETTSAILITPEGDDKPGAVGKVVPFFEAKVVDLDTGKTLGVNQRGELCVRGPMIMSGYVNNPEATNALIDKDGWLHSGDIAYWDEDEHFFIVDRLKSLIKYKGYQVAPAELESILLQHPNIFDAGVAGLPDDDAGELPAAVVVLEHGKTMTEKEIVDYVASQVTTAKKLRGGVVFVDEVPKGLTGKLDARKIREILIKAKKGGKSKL

Cc1ccc2c(c1[N+](=O)[O-])C(=O)c1ccccc1C2=O
Potency [1, 9]: inconclusive: 3.37 µM [activator, full curve, poor fit]

O=C(O)Cc1ccc2c(c1)C(=O)c1ccccc1CO2
Potency [1, 9]: inconclusive: 29.8 µM [activator, partial curve]

Cc1cc(C(C#N)c2ccc(Cl)cc2)c(Cl)cc1NC(=O)c1cc(I)cc(I)c1O (stereo not drawn)
Potency [1, 9]: inconclusive: 33.5 µM [inhibitor, partial curve, poor fit]

CCc1ccc2c(c1)C(=O)c1ccccc1C2=O
Potency [1, 9]: active: 1.72 µM

CC(C)c1ccc2cc(C(C)C)ccc2c1
Potency [1, 9]: inconclusive: 54.5 µM [activator, partial curve]

NC(=O)N1C(=O)C(C(=O)c2cc(Cl)cs2)c2cc(F)c(Cl)cc21 (stereo not drawn)
Potency [1, 9]: inconclusive: 19.3 µM [inhibitor, partial curve, poor fit]

O=C(Nc1ccccc1)Nc1ccccc1
Potency [1, 9]: active: 2.18 µM

CC(C)=CC(=O)C=C(C)C
Potency [1, 9]: inactive

ClCCl
Potency [1, 9]: inactive

O=Cc1ccc(O)c(O)c1O
Potency [1, 9]: inconclusive: 33.5 µM [inhibitor, single point]

COc1cc(C(=O)N2CCCCCCC2)cc(OC)c1OC
Potency [1, 9]: inactive

CCCCC1(COC(=O)CCC(=O)O)C(=O)N(c2ccccc2)N(c2ccccc2)C1=O
activation [1, 9]: inconclusive: 0.0065% [phenotype inactive]

CC(C)(C)C(O)/C=C/c1ccc2c(c1)OCO2 (stereo not drawn)
Potency [1, 9]: active: 29.8 µM

C=C[Si](OC(C)=O)(OC(C)=O)OC(C)=O
Potency [1, 9]: inconclusive: 77 µM [inhibitor, single point]

CCCCCCCCSCCO
Potency [1, 9]: inactive

CC(C)C(OC(=O)c1ccccc1)C(C)(C)COC(=O)c1ccccc1 (stereo not drawn)
Potency [1, 9]: inconclusive: 34.4 µM [activator, partial curve, poor fit]

COC(=O)CCCCCCCC(=O)OC
Potency [1, 9]: inconclusive: 48.6 µM [inhibitor, partial curve, poor fit]

CCCCCC1Nc2cc(C(F)(F)F)c(S(N)(=O)=O)cc2S(=O)(=O)N1 (stereo not drawn)
Potency [1, 9]: inactive

Nc1cc([N+](=O)[O-])ccc1C(=O)O
Potency [1, 9]: inactive

O=C(O)CP(=O)(O)O
Potency [1, 9]: inactive

CN(CCCN1c2ccccc2CCc2ccccc21)CC(=O)c1ccc(Cl)cc1
Potency [1, 9]: inconclusive: 29.8 µM [activator, partial curve, poor fit]

CCCCCCCCN1CCCC1=O
Potency [1, 9]: inconclusive: 38.6 µM [activator, partial curve, poor fit]

CC(=O)Oc1ccc([N+](=O)[O-])cc1CCl
Potency [1, 9]: active: 68.6 µM

CCOC(=O)CCC(=O)OCC
activation [1, 9]: inconclusive: -0.112% [phenotype inactive]

c1ccc(CNc2ncnc3c2ncn3C2CCCCO2)cc1 (stereo not drawn)
Potency [1, 9]: active: 4.33 µM

Oc1ccc(N=Nc2ccccc2)cc1
Potency [1, 9]: active: 2.47 µM

O=Cc1ccc([N+](=O)[O-])cc1
Potency [1, 9]: active: 19.4 µM

O=C(/C=C/c1ccc([N+](=O)[O-])cc1)c1ccccc1
Potency [1, 9]: active: 30.7 µM

O=C(c1ccccc1)C1CCC1
activation [1, 9]: inconclusive: -3.42% [phenotype inactive]

IC(I)I
Potency [1, 9]: inactive

Cc1ccc(C(C)OC(=O)C2(C)CCC(C(=O)O)C2(C)C)cc1 (stereo not drawn)
Potency [1, 9]: inactive

CC(=O)Nc1ccc2c(c1)Cc1cc(NC(C)=O)ccc1-2
Potency [1, 9]: inconclusive: 43.1 µM [activator, single point] and active: 30.6 µM

CC1(C)O[C@@H]2[C@@H](CO[C@@]3(COS(N)(=O)=O)OC(C)(C)O[C@@H]23)O1
Potency [1, 9]: inactive

COc1ccc(-c2coc3cc(O)cc(O)c3c2=O)cc1
Potency [1, 9]: active: 0.686 µM
activation [1, 9]: inconclusive: 16.6% [phenotype inactive] [at 94.8 µM]
Potency [2]: inconclusive: 49 µM [cytotoxic, partial curve] and inconclusive: 68.6 µM [cytotoxic, partial curve]

COc1ccc2c(c1OC)C(=O)O[C@@H]2[C@H]1c2c(cc3c(c2OC)OCO3)CCN1C
activation [1, 9]: inconclusive: 2.01% [phenotype inactive]
Potency [3]: inconclusive: 12.8 µM [cytotoxic]
Potency [4]: inactive
Potency [5]: inconclusive: 13.3 µM [cytotoxic, partial curve, poor fit]

CC(=O)OCC1=C(C(=O)O)N2C(=O)[C@@H](NC(=O)CSc3ccncc3)[C@H]2SC1
Potency [1, 9]: inactive

Fc1ccc(C(c2ccc(F)cc2)N2CCN(C/C=C/c3ccccc3)CC2)cc1
Potency [1, 9]: inconclusive: 33.5 µM [inhibitor, partial curve, poor fit]
Potency [3]: inconclusive: 25.6 µM [cytotoxic]
Potency [4]: inconclusive: 26.6 µM [inhibitor, single point]
Potency [5]: inconclusive: 33.5 µM [cytotoxic, partial curve, poor fit]

CC(=O)OCCN(CCOC(C)=O)c1ccc(N=Nc2ccc([N+](=O)[O-])cc2C#N)cc1
Potency [1, 9]: inconclusive: 9.69 µM [activator, partial curve, poor fit]
Potency [2]: active: 48.6 µM

CC1(C)CC(N)CC(C)(CN)C1 (stereo not drawn)
Potency [1, 9]: inactive
Potency [2]: inconclusive: 62.1 µM [cytotoxic, partial curve, poor fit]

O=C(NCCN1CCOCC1)c1ccc(Cl)cc1
Potency [1, 9]: inconclusive: 26.6 µM [activator, partial curve, poor fit]
Potency [6]: inconclusive: 23.7 µM [activator, single point]
Potency [4]: inactive

CCC(=O)Oc1ccc(/C(CC)=C(\CC)c2ccc(OC(=O)CC)cc2)cc1
Potency [1, 9]: inconclusive: 48.6 µM [inhibitor, partial curve]
Potency [2]: inconclusive: 68.6 µM [cytotoxic, single point]

Nc1ccc(NC(=O)c2ccc(N)cc2)cc1
Potency [1, 9]: inconclusive: 1.94 µM [activator, full curve]

O=C(N[C@@H](c1ccccc1)[C@@H]1CCCCN1)c1cccc(C(F)(F)F)c1Cl
Potency [1, 9]: inconclusive: 68.6 µM [inhibitor, partial curve, poor fit]
Potency [2]: inconclusive: 27.3 µM [cytotoxic, partial curve]

O=c1[nH]cnc2ccccc12
Potency [1, 9]: inactive
Potency [2]: inactive

COc1cc(C(=O)OCCCN2CCCN(CCCOC(=O)c3cc(OC)c(OC)c(OC)c3)CC2)cc(OC)c1OC
Potency [1, 9]: inconclusive: 26.6 µM [inhibitor, partial curve]
Potency [3]: inconclusive: 22.8 µM [cytotoxic]
Potency [5]: inconclusive: 15.5 µM [cytotoxic]

N=C(N)N
Potency [1, 9]: inactive

O=C(CCc1ccc(O)cc1)c1c(O)cc(O)cc1O
activation [1, 9]: inconclusive: 4.08% [phenotype inactive] [at 94.8 µM]
Potency [5]: inactive
Potency [2]: inconclusive: 62.5 µM [cytotoxic, partial curve]

CCCCNC(N)=O
activation [1, 9]: inconclusive: 13.1% [phenotype inactive]

OCc1ccccc1O
Potency [1, 9]: inactive

CC1=C(/C=C/C(C)=C/C=C/C(C)=C/CO)C(C)(C)CCC1
Potency [1, 9]: active: 13.9 µM and active: 32.3 µM
Potency [2]: inconclusive: 64.4 µM [cytotoxic]

Nc1nc2ccc(OC(F)(F)F)cc2s1
Potency [1, 9]: active: 9.44 µM
Potency [3]: inactive

CCOc1ccc(NC(C)=O)cc1N
Potency [1, 9]: inconclusive: 78.1 µM [inhibitor, single point]
Potency [2]: inactive

Cc1ccc(-n2nc(C(C)(C)C)cc2NC(=O)Nc2ccc(OCCN3CCOCC3)c3ccccc23)cc1
Potency [1, 9]: active: 18.8 µM
Potency [2]: inconclusive: 26.6 µM [cytotoxic, partial curve]

CC(C)[C@@H]1CC[C@@H](C)C[C@H]1O
activation [1, 9]: inconclusive: 5.96% [phenotype inactive] [at 94.8 µM]

O=c1c(-c2ccc(O)cc2)coc2cc(O)ccc12
Potency [1, 9]: active: 2.41 µM and active: 12.2 µM
Potency [7]: inactive
Potency [6]: active: 15.5 µM
Potency [2]: inconclusive: 61.1 µM [cytotoxic, partial curve]

Cc1cc(=O)n(-c2ccccc2)n1C
Potency [1, 9]: inactive

COc1ccccc1N=Nc1c(S(=O)(=O)O)cc2cc(S(=O)(=O)O)cc(NC(C)=O)c2c1O
Potency [1, 9]: inactive
Potency [2]: active: 25.7 µM

Cc1nc(N)nc(N)c1-c1ccc(Cl)c(Cl)c1
Potency [1, 9]: inactive
Potency [2]: inconclusive: 0.841 µM [cytotoxic, full curve]

Oc1ccc(OCc2ccccc2)cc1
Potency [1, 9]: active: 4.24 µM
Potency [2]: inconclusive: 59.8 µM [cytotoxic, partial curve]

O=C(O)c1cc(-c2ccccc2)nc2ccccc12
Potency [1, 9]: inconclusive: 19.6 µM [activator] and inconclusive: 16.8 µM [activator, partial curve]
Potency [3]: inactive
Potency [4]: inactive
Potency [8]: active: 12.8 µM and active: 13.8 µM

Clc1ccc(Sc2cc(Cl)c(Cl)cc2Cl)cc1
activation [1, 9]: inconclusive: -1.35% [phenotype inactive]
activation ([1]; at 73.3 µM (top of the series)): inactive: 3.76%

O=C(O)CN(CCN(CC(=O)O)CC(=O)O)CCN(CC(=O)O)CC(=O)O
Potency [1, 9]: inactive
Potency [3]: inactive

CCCCCC
Potency [1, 9]: inactive

Cc1cccc(C(=O)O)c1O
Potency [1, 9]: inactive
Potency [2]: inactive

C[C@@]12CCC[C@H]1[C@@H]1CC[C@H]3C[C@@H](O)CC[C@]3(C)[C@H]1CC2
Potency [1, 9]: inconclusive: 33.5 µM [inhibitor, single point]

CC(=O)[C@H]1CC[C@H]2[C@@H]3C=CC4=CC(=O)CC[C@@]4(C)[C@@H]3CC[C@]12C
Potency [1, 9]: inactive
Potency [2]: inconclusive: 33.5 µM [cytotoxic, single point]

CCC(CC)(CC(=O)Nc1cccc(/C=C/c2nc(C3CCC3)cs2)c1)C(=O)O
Potency [1, 9]: inconclusive: 18.8 µM [activator, partial curve]

— PubChem BioAssay (Tox21)
